Assay results reported in the supplement of paper PMC12632987.
Over roughly 4,500 sequences, “median log2 fold change of GCK-ALFA target abundance (FLAG IP / Myc IP barcode read proportion)” has its median near 0.078; the lowest 2% begin near -0.6. The list shows a part of the results.

B1: GBRAP_128_3526 (protein)
chain: SVEEAKEKAKEVMEKIKNSTVEEAKAITEEFLEWLKTQTLEEVKAAADVLIENLPKLSAEKLDAVADAIDENLDKFTPEKQRELNGVRVEALNEAEEKEE
B2: GBRAP_184_5296 (protein)
chain: EVRRVTIEAETAEEAIAKIEEAAARARAEGVRLRLDLFLRNVSVEGFARIAERLAALRAEGLIVEATVVLLDEKSEEEVDRFVAIADAAGVRLVVALSDE
B3: GBRAP_11_2688 (protein)
chain: KKEKLKEGAELAEELAELLKKLLEEGVDNEELIKEAKEKLEELLKLTKEYADKASQKRTEYLYETWKELLADPENAEEYAKEALAEARVLAGDYLLEIEE
B4: GBRAP_128_3482 (protein)
chain: SVEEAVARVRELMERIKTSSLEEVKEISREIVELLGSLNDEEAEAAAEAIEEELPKLTAEKLDIIADVFEENRGTLDPYKANLVAGVAVEALNEALEKEE
B5: GBRAP_80_6812 (protein)
chain: AEERLEEALKEIAELNPELAERLERIVEDARAVGVPVEALAELAEALLELLKVNPELAEEALEELEEDLEEAIAEGDTARAEATIRVYAGQMLLEVEELE
B6: GBRAP_160_4527 (protein)
chain: MERLEEKKKLLEEAAKRAIELVKGESAEQRAVIVSMEFGSLAMEFAEDERVSDEEVDVVIDAEDELVETILANPDLTDEEIAKLIEEAVKKIIEELEKLY
B7: GBRAP_160_4723 (protein)
chain: NENIEKLAEEALKLLKEAVKLTEDLSKEEAKAMFETAAGEVLLMFSEDPNITDEMEETAAKILDELVKELVENYDASLEEKLKIVEEYIEKLKEELEKLA
B8: GBRAP_11_2670 (protein)
chain: KKEALKKALKLAKEAAKTAQKLIEEGVDNEELLKELEKLLEEIKKLAEEHLDPAYKRDVEIAEELFKKAKEDEENKLEYLKLLLASLAVLAGNLELDLDE
B9: GBRAP_128_3558 (protein)
chain: STAAAVAEVRALLDAIAASDAATAAALARRLAALIAAADPETREAIVAEILERLPELSAEHLEILADVFRAARPAADPATAEALAEIEVAALNEAEELEE
B10: GBRAP_160_4617 (protein)
chain: SSKIEELKKFVKEEFEEAKEMIEGETPEQRAAIVDVTIGEIILEAEELEVVSDESLEKIDEIGDELVETILENPDLTEEEVKELIDEAEKKIIEIIEEDE
B11: GBRAP_125_3003 (protein)
chain: AKEEAARDMREIALAAGFSESLAEELARLVLEGSVKNTLAAFALALGNEEAAELIQKLTEEEAIEVVKRLAEIARKEGKMSEEEMAKKLLEIAKEALKKQ
B12: GBRAP_184_5029 (protein)
chain: KVVEREIEAENLEELEKKLEELRKEVANSGATLIVLLDIKNPTEEMVRTALERLGEIKREGYASDVVVGFKRILSEELIDIALETADEEGVKVVLPISDE
B13: GBRAP_160_4772 (protein)
chain: SEELEKLKKEIKEIFDEHIKLLKEVPQEEALTVLRGALGEVRMEVFSSDAVSEELEEEIDKILDEAEKEAEKNKNAPVEEFIKILKEAEEKILALIESEI
B14: GBRAP_128_3466 (protein)
chain: STEEAVAWAREKMEAMKEADDEEARRLAEELAERLLTLSLEEVEAVVEEILKQLPKLSAKKLEILADVLDAARPRLSPEKAALVAEVISEALLLAEEKEE
B15: GBRAP_11_2909 (protein)
chain: KKENLEKLAKLLEELVKLLEKLIKEGVEDKELLEKALKVAKEALELAKKNLDEASVELAEELVELLEKAIEDPEKAKEYVEKALAVARVLLGEVLLEIEE
B16: GBRAP_78_6639 (protein)
chain: SIEEKLEEALELVDEAAKLALTLPPEIANEILDELVDAASHLEEAIEKGGDLEEVKEALKELKEALELIKKHNDPRLKPLEEKVKKAIELLEEIIKELEK
B17: GBRAP_83_6883 (protein)
chain: KEKIVVAGPADHIEELVEIAIDLTKNEGYEVEIEVLVRPEGIEKVLEGVERLAKAGVNTKLIIHGEGVTKEQAEELEARIKEIAKKYGVKIEVEVILDEP
B18: GBRAP_128_3555 (protein)
chain: STEEVVEEAEELLEKIKESDEEEAREYARELVRLLASVDEESREAIVKVILERLPELTVEQLEILADVFREERPKVDPDVANALAEIEVEALNVALEKEE
B19: GBRAP_184_5101 (protein)
chain: KTYEAEVEADTAEEAKAKIAEAVAEAAAAGANLNILLKGKGLSTEEIVDIVRYLGRAAKEAGIPAVTLGIDTPLSEEDADKVIAAADEAGIRVVLALSEE
B20: GBRAP_52_6036 (protein)
chain: SRERMRRLAQEIVDLAKAGDLEGARALAREAVETLSEEELRLLGEELARLAREAAPEDLDAIMEVAFILADALVEGGYDEVLADDLLARVAAAAVENLQA
B21: GBRAP_128_3422 (protein)
chain: SRAAAVARARALLEAMKTADDATAAALADELAALFASADLETAEAIAEVIRAEIPKLTAKQLDILADAFRAALPKLTPEKANIAADVIVDLLNEREELEE
B22: GBRAP_166_4924 (protein)
chain: STEELVAEARARLEAVIAEGRADPSLTPGQITAAMAYETAKLLESVEDEETKLAIVEAGLKLAKEAGLDPRRLATLTASLYGFSDEEIDKIDEITEKILA
B23: GBRAP_14_3773 (protein)
chain: MEEKIKILKETTEEAAALLAELDPALAEEYRRALEEVREKTIEEIKKTGNAIEAADRGREEAVARIAEITADRPAELRAQAEAIVAVLFGQAILEIDELE
B24: GBRAP_139_3750 (protein)
chain: SALEEKIKEAVELAKKIPEDPEGSIKAIADLLVSVNEEDAEKIARAIAEELASLPFDEFEAIMDKLIETLKTEYNNEDLADIVEAERNRQLAKIAVEEEK
B25: GBRAP_52_5974 (protein)
chain: MEEEMRKLAKEIVALILAGDEAGARALLEEIAATKTEEEITLLFKELAKLAKTATPEERDAIVEAALLAEDIALAAGFDEAVMDSNLADVVKAAVDAEKA
B26: GBRAP_160_4481 (protein)
chain: MEKVKKAAEDLREDVKKTLEESKDESPEQVATAVAVTLGSDLMEYESEGLINDEQADIVIEAMDEIRELGKEKKDESVEEVIKELEEIVEKTVEKILEAA
B27: GBRAP_125_3120 (protein)
chain: HMEQLLEDLAIVLRALGFDEEDIEEALELARRHGLKGTMIAAAMALGYEEIADLIEKLSEEDVAEAVAELAAEIKANPDLTPEEVKERFKEILEKKLAAQ
B28: GBRAP_78_6654 (protein)
chain: EVEELIDKAMEHLDKAAKLTKKLDEESRNELLDLLVEAASHILLSEENGFDLEELKEALEYLKKALEYAKSLNTPVAKEIAEELEKAIEYLEKAIKLLEE
B29: GBRAP_26_5422 (protein)
chain: LDEKIDQMRDDLDALAKEVLDPETAAAVTAEADTILLELEEELEKNKNNLELQEKALEEALKEFEKALDELGVSEEAKKKLVAKFKEGLKKILEYLKKQQ

Target: GABARAP, O95166
Sequence (O95166 whole entry, the tested form may be a part): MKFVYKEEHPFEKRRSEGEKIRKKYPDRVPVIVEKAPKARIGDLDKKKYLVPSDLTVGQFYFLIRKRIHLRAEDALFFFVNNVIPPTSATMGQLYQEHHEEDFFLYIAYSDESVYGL
Test: median log2 fold change of GCK-ALFA target abundance (FLAG IP / Myc IP barcode read proportion) (log2 ratio); each designed protein is fused to an ALFA-tag nanobody in HEK293 cells to bring the named protein to FLAG-tagged glucokinase (GCK); Myc marks an untargeted standard; higher = target protein stabilised (more abundant)
Conditions: target protein: 3xFLAG-MCP-GCK-ALFA reporter; HEK293 landing pad (RPLP)
Procedure, shortened: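 The readout is target abundance, the per-binder median log2 ratio of FLAG to Myc barcode read proportions. It came from HEK293 landing-pad cells carrying a recombined ALFA-nanobody-fused binder library, induced with 2 μg mL^−1 doxycycline and transfected with a plasmid for a FLAG-tagged target and a Myc-tagged standard. After 48 h, lysates were immunoprecipitated with anti-FLAG and anti-Myc, and circular RNA barcodes were reverse transcribed, amplified and sequenced. Each barcode needed a proportion of at least 10^−7 in both replicates and each binder at least 3 barcodes per replicate, a pseudocount of 10^−6 was added, and the replicates were pooled.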

Question: B1 was tested. Which “median log2 fold change” value did it give?
Answer: 0.374

Question: How did the “median log2 fold change” value turn out when B2 was run?
Answer: -0.0783

Question: For B3, which “median log2 fold change” value is on record?
Answer: 0.135

Question: B4 was tested. Which “median log2 fold change” value did it give?
Answer: -0.185

Question: B5 was tested. Which “median log2 fold change” value did it give?
Answer: -0.337

Question: How did the “median log2 fold change” value turn out when B6 was run?
Answer: -0.0594

Question: How did the “median log2 fold change” value turn out when B7 was run?
Answer: 0.121

Question: For B8, which “median log2 fold change” value is on record?
Answer: 0.0381

Question: Which “median log2 fold change” value does the source give for B9 here?
Answer: 0.187

Question: Which “median log2 fold change” value does the source give for B10 here?
Answer: -0.294

Question: B11 was tested. Which “median log2 fold change” value did it give?
Answer: 0.171

Question: Which “median log2 fold change” value does the source give for B12 here?
Answer: 0.0801

Question: For B13, which “median log2 fold change” value is on record?
Answer: 0.118

Question: How did the “median log2 fold change” value turn out when B14 was run?
Answer: 0.183

Question: Which “median log2 fold change” value does the source give for B15 here?
Answer: 0.398

Question: B16 was tested. Which “median log2 fold change” value did it give?
Answer: 0.0987

Question: Which “median log2 fold change” value does the source give for B17 here?
Answer: 0.0991

Question: For B18, which “median log2 fold change” value is on record?
Answer: -0.0585

Question: For B19, which “median log2 fold change” value is on record?
Answer: 0.0879

Question: B20 was tested. Which “median log2 fold change” value did it give?
Answer: -0.791

Question: For B21, which “median log2 fold change” value is on record?
Answer: -0.139

Question: With B22 as the binder, how does the “median log2 fold change” value read?
Answer: 0.209

Question: For B23, which “median log2 fold change” value is on record?
Answer: 0.0144

Question: For B24, which “median log2 fold change” value is on record?
Answer: 0.174

Question: B25 was tested. Which “median log2 fold change” value did it give?
Answer: -0.0573

Question: With B26 as the binder, how does the “median log2 fold change” value read?
Answer: 0.249

Question: For B27, which “median log2 fold change” value is on record?
Answer: -0.131

Question: B28 was tested. Which “median log2 fold change” value did it give?
Answer: 0.0422

Question: For B29, which “median log2 fold change” value is on record?
Answer: 0.22
